# Data published in PubChem BioAssay AID1508623 (National Center for Advancing Translational Sciences (NCATS), 2021).
# Out of some 48,000 compounds screened, about 450 (0.94%) were called active. About 19% were inconclusive and are not listed. Calls come from the whole dose curve; as a rule, active = well fitted inhibition curve with a large enough effect; inconclusive = small, poorly fitted or top-dose-only effect; inactive = no such curve, though single readings can be large or run the other way. The list shows a part of the results.
# Assay: Primary qHTS for Identification of Small Molecule Inhibitors of Huntingtin Promoter Activity; note: nearly all actives have a fitted effect of over 50% in size
# Settings: HEK293 HTT promoter firefly luciferase reporter (activity 0% = vehicle and -100% = no light), 24 h; activity change, negative = inhibition: at the top concentration
# Procedure, shortened: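 HEK293 Fluc reporter, 2,500 cells/well, 24 h pre-culture; cpds up to 57.5 uM final, 24 h 37 degrees C; Dual-Glo, 10 min RT; normalized vehicle = 0%, zero RLU = -100%.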
row,SMILES,"activity change, negative = inhibition"
1,NC(=O)c1ccc(NC(=O)c2cccn(Cc3ccccc3)c2=O)cc1,inactive: -7.57%
2,CCC1(CCC(C)C)C(=O)NC(=O)NC1=O,inactive: -13% [at 116 µM]
3,O=c1c2ccccc2nc(/C=C\c2cccc(Br)c2)n1-c1ccc(O)cc1,inactive: -21.4%
4,CCC1(C2=NCCN2)Cc2ccccc2O1 (stereo unspecified),inactive: 10.7%
5,CCSc1nnc(NC(=O)c2cccn(Cc3ccc(Cl)cc3)c2=O)s1,inactive: -6.05%
6,CC[C@@H](CO)NC(=O)[C@@H]1C=C2c3cccc4[nH]cc(c34)C[C@H]2N(C)C1,inactive: 1.68%
7,Cc1ccc2scc(N3CCN(C)CC3)c(=O)c2c1,inactive: 53.1%
8,Cc1ccc(-n2c(/C=C/c3ccccc3)nc3ccccc3c2=O)cc1C,inactive: -22.3%
9,CCOC(=O)Nc1ccc(NCc2ccc(F)cc2)cc1N,inactive: -8.16%
10,C[C@H](N)C(=O)c1ccccc1,inactive: -2.65% [at 116 µM]
11,Nc1ccccc1C(=O)OCC(O)CO (stereo unspecified),inactive: 13.1%
12,COc1cc2cc(c1Cl)N(C)C(=O)C[C@H](OC(=O)C(C)C)[C@]1(C)O[C@H]1[C@H](C)[C@@H]1C[C@@](O)(NC(=O)O1)[C@H](OC)C=CC=C(C)C2,inactive: -26.4%
13,O=C(O)c1nn(Cc2ccc(Cl)cc2Cl)c2ccccc12,inactive
14,O=C(O)C(Cl)Cl,inactive: 6%
15,CN(C)[C@@H]1C(=O)C(C(N)=O)=C(O)[C@@]2(O)C(=O)C3=C(O)c4c(O)cccc4[C@@](C)(O)[C@H]3C[C@@H]12,inactive
16,Cc1ccccc1Cn1cccc(C(=O)Nc2cc(Cl)ccc2C#N)c1=O,inactive: -1.12%
17,CC(NC(C)(C)C)C(=O)c1cccc(Cl)c1 (stereo unspecified),inactive
18,CCOc1ccc2nc(NC(=O)c3cccn(Cc4ccccc4C)c3=O)sc2c1,inactive: -13.1%
19,CCC(=O)N1CC(=O)Nc2ccc(C)cc2C1c1ccc(F)cc1 (stereo unspecified),inactive: -4.19%
20,NCc1cccnc1,inactive: -1.64%
21,Cc1cc(NC(=O)c2cccn(Cc3cccc([N+](=O)[O-])c3)c2=O)no1,inactive: -7.99%
22,CC(C)=C[C@@H]1[C@@H](C(=O)OCc2coc(Cc3ccccc3)c2)C1(C)C,inactive: 8.37%
23,CCC(CC)(CNC(=O)CCCO)c1cccc(OC)c1,inactive: -4.69%
24,CCCN(CCC)CCc1c[nH]c2ccccc12,inactive: -6.61% [at 116 µM]

row,SMILES,"activity change, negative = inhibition"
1,CN1CC[C@]23c4c5ccc(O)c4O[C@H]2[C@@H](O)C=C[C@H]3[C@H]1C5,inactive: -6.72% [at 116 µM]
2,O=[N+]([O-])c1cc([N+](=O)[O-])c2ccccc2c1,inactive: 14.8% [at 116 µM]
3,O=C(Nc1ccc2c(c1)OCO2)c1cccn(Cc2ccc(F)cc2)c1=O,inactive: -23.9%
4,NCC(CC(=O)O)c1ccc(Cl)cc1 (stereo unspecified),inactive: -2.51% [at 0.739 µM]
5,O=C1OC(c2ccc(O)c(S(=O)(=O)O)c2)(c2ccc(O)c(S(=O)(=O)O)c2)c2c(Br)c(Br)c(Br)c(Br)c21,inactive: -4.95%
6,O=c1cccc2n1CC1CNC[C@H]2C1,inactive: 192%
7,CCOC(=O)CC(SP(=S)(OC)OC)C(=O)OCC (stereo unspecified),inactive
8,NC(=O)c1cc([N+](=O)[O-])cc([N+](=O)[O-])c1,inactive: 4.05%
9,COc1ccc(-c2nn3c(=O)cc(CN4CCN(C(=O)COc5ccc(F)cc5)CC4)nc3s2)cc1,inactive: -21.5%
10,O=C1CC[C@@]2(O)[C@H]3Cc4ccc(O)c5c4[C@@]2(CCN3CC2CC2)[C@H]1O5,inactive
11,CC(=O)OC1(c2ccccc2)CCN(CCc2ccccc2)CC1,inactive: -22.1% [at 116 µM]
12,CCN(CC)CCc1c[nH]c2ccccc12,inactive: -1.73% [at 222 µM]
13,COC1CC(=C(c2cccs2)c2cccs2)C[N+](C)(C)C1 (stereo unspecified),inactive: 6.29%
14,Cc1oc(-c2ccc(Cl)cc2)nc1CN1C(=O)CN=C(c2ccccc2)c2cc(Cl)ccc21,inactive: -3.67%
15,CN1CCN(C(=O)O[C@H]2c3nccnc3C(=O)N2c2ccc(Cl)cn2)CC1,inactive
16,Oc1ccc2[nH]cc(CCCCN3CC=C(c4ccccc4)CC3)c2c1,inactive: -9.13%
17,COc1ccc(-c2nc(CN3C(=O)CN=C(c4ccccc4)c4ccccc43)c(C)o2)cc1OC,inactive: -14%
18,CCc1ccc(OCC(=O)N2CCN(CCc3ccccn3)CC2)cc1,inactive: -13.9%
19,COc1ccccc1-n1c(/C=C/c2ccccc2)nc2ccccc2c1=O,inactive: 1.44%
20,Cn1c(CCCC(=O)O)nc2cc(N(CCCl)CCCl)ccc21,inactive
21,CCCCc1nc2ccccc2c(=O)n1-c1cccc(OC)c1,inactive: -17.4%
22,COc1nn(CSP(=S)(OC)OC)c(=O)s1,inactive: -15.6% [at 116 µM]
23,CC(Cc1ccccc1)NCCn1cnc2c1c(=O)n(C)c(=O)n2C (stereo unspecified),inactive: -5.03% [at 116 µM]
24,N[C@@H]1C[C@H]1c1ccccc1,inactive: 3.05%

row,SMILES,"activity change, negative = inhibition"
1,CC(C)NCC(O)c1ccc([N+](=O)[O-])cc1 (stereo unspecified),inactive: -5.59%
2,CCOP(=S)(OCC)O/N=C(\C#N)c1ccccc1,inactive: 5.75%
3,C=CC(=O)NCNC(=O)C=C,inactive: 17.5% [at 116 µM]
4,CSc1ccc(C(c2c(O)c3ccccc3oc2=O)c2c(C)n(C)n(-c3ccccc3)c2=O)cc1 (stereo unspecified),inactive: -21.3%
5,CN1CCN(c2csc3ccc(F)cc3c2=O)CC1,inactive: 4.2%
6,CC(=O)[C@H]1CC[C@H]2[C@@H]3CC[C@H]4C[C@](C)(O)CC[C@]4(C)[C@H]3CC[C@]12C,inactive: 5.43%
7,NC1=NC(=O)C(c2ccccc2)O1 (stereo unspecified),inactive: 8.49%
8,CCOC(=O)C1(c2ccccc2)CCN(CCC(C#N)(c2ccccc2)c2ccccc2)CC1,inactive: -10.9%
9,CN(C)CCc1ccc(O)cc1,inactive
10,CCOc1ccc(-n2c(/C=C/c3ccccc3)nc3ccccc3c2=O)cc1,inactive: -26%
11,ClCCCN1CCN(c2cccc(Cl)c2)CC1,inactive: -13.2%
12,C[C@]12CC[C@H]3[C@@H](CCC4=CC(=O)CC[C@@]43C)[C@H]1CC[C@H]2O,inactive: -5.51%
13,CCC1(c2ccccc2)C(=O)N(COC)C(=O)N(COC)C1=O,inactive: -3.94%
14,CCN(CC)C(=O)N[C@@H]1C=C2c3cccc4[nH]cc(c34)C[C@@H]2N(C)C1,inactive: -13.3%
15,N#Cc1cc([N+](=O)[O-])ccc1NC(=O)c1cccn(Cc2cccc(F)c2)c1=O,inactive: -11.5%
16,O=C(Nc1ccc2c(c1)OCCO2)c1cccn(Cc2cccc([N+](=O)[O-])c2)c1=O,inactive: -28.1%
17,O=C(CCl)c1ccc(Cl)cc1Cl,inactive: -0.253%
18,C#C[C@]1(O)CC[C@H]2[C@@H]3CCC4=CC(=O)CCC4=C3C=C[C@@]21CC,inactive: -11.9%
19,Cc1cccc(C)c1NC(=O)CN1CCCC1=O,inactive
20,O=C(COc1ccccc1[N+](=O)[O-])N1CCN(CCc2ccncc2)CC1,inactive: -12.7%
21,Oc1ccc2c3c1O[C@H]1[C@@H](O)C=C[C@H]4[C@@H](C2)NCC[C@@]341,inactive: -7.45% [at 116 µM]
22,CCNc1nc(Cl)nc(NCC)n1,inactive: 0.81%
23,C[C@@H]1CC2=CC(=O)CC[C@@H]2[C@H]2CC[C@@]3(C)[C@@H](CC[C@]3(C)O)[C@@H]21,inactive: -16.3%
